The values that follow come from patent publication US9388243B2, “Method of target membrane protein depletion” (Samsung Electronics Co., Ltd., priority 2013, dated 2016).

Details in all cases: rank among the four antibodies of Reference Example 1.7
Experiment [1] has as its target T1, c-Met (Homo sapiens, UniProt P08581). As to the kind of experiment: Affinity for c-Met of the four affinity-matured antibodies. It is filed as binding.
The test system of experiment [2] is Akt phosphorylation. In words: Akt phosphorylation by the four affinity-matured antibodies. The format is cell-based.
Experiment [3] has as its target T1, c-Met. As to the kind of experiment: c-Met degradation degree of the four affinity-matured antibodies. The format is cell-based.

T1 sequence (P08581 25-1390): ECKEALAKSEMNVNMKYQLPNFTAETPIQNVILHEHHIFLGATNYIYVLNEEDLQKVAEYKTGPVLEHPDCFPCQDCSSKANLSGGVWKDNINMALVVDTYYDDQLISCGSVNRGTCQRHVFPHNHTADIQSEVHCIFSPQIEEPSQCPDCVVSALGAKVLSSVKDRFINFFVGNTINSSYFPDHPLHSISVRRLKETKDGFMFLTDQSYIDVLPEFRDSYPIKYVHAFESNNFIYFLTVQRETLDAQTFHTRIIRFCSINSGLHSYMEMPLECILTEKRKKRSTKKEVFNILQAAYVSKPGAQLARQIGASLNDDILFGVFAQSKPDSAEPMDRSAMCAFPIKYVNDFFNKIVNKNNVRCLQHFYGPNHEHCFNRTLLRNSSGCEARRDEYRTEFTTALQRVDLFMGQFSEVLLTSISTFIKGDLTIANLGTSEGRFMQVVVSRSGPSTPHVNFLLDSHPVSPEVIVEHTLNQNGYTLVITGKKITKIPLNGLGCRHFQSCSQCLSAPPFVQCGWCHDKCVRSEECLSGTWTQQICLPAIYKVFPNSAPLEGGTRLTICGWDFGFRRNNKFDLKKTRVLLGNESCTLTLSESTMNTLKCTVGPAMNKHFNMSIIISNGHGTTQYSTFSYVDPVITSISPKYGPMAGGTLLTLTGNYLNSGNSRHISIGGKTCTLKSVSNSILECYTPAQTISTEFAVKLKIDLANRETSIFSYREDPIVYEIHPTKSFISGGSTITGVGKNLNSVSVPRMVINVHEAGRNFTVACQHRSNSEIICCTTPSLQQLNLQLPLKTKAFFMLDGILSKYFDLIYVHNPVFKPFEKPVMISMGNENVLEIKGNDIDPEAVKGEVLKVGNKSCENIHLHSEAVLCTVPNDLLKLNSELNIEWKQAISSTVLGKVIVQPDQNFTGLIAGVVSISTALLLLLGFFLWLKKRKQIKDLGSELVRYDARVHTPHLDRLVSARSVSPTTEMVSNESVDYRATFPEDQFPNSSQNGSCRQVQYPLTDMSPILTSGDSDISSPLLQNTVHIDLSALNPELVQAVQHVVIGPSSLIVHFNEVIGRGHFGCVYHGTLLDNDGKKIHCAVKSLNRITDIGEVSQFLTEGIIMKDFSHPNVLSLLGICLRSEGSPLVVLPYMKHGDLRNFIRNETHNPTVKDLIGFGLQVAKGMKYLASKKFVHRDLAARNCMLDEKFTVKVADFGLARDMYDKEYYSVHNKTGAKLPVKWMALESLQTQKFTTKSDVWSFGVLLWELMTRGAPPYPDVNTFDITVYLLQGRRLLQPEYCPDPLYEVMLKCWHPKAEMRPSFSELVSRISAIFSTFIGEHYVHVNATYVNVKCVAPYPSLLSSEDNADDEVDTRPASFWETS

B1: huAbF46-H4-A1: affinity-matured anti-c-Met antibody, L3-1 origin (antibody)
heavy: EVQLVESGGGLVQPGGSLRLSCAASGFTFTDYYMSWVRQAPGKGLEWLGFIRNKANGYTTEYSASVKGRFTISRDNSKNTLYLQMNSLRAEDTAVYYCARDNWFAYWGQGTLVTVSSASTKGPSVFPLAPSSKSTSGGTAALGCLVKDYFPEPVTVSWNSGALTSGVHTFPAVLQSSGLYSLSSVVTVPSSSLGTQTYICNVNHKPSNTKVDKKVEPKSCDCH[human IgG1 Fc skipped]
light: DIQMTQSPSSLSASVGDRVTITCKSSQSLLASGNQNNYLAWHQQKPGKAPKMLIIWASTRVSGVPSRFSGSGSGTDFTLTISSLQPEDFATYYCQQSYSRPYTFGQGTKVEIKRTVAAPSVFIFPPSDEQLKSGTASVVCLLNNFYPREAKVQWKVDNALQSGNSQESVTEQDSKDSTYSLSSTLTLSKADYEKHKVYACEVTHQGLSSPVTKSFNRGEC
For the molecule B1, the “affinity for c-Met” value in experiment [1] was “highest”. Moreover, the Akt phosphorylation result in experiment [2] is recorded as “lowest”. In addition, in experiment [3], the c-Met degradation degree entry is “lowest”.
